Hit rate of the full screen: of about 200,000 compounds, about 10 (0.005%) were called active. Inconclusive results, whose numbers are uncertain, are shown with a selection of clear calls. Calls follow the shape of the dose curve; as a rule, active = well fitted inhibition curve with a large enough effect; inconclusive = small, poorly fitted or top-dose-only effect, or effect the other way, or another doubt; inactive = no such curve, though single readings can be large or run the other way. No potency is given beside an inconclusive call; the fits are too rough.
Target: Lysosomal alpha-glucosidase (Homo sapiens) (UniProt P10253)
Test: qHTS Assay for Inhibitors of Human alpha-Glucosidase as a Potential Chaperone Treatment of Pompe Disease;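 as to activity change, negative = inhibition: plate controls were uninhibited enzyme wells for no effect and no-enzyme background for full effect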
Settings: purified human GAA, 4-MU-alpha-glucoside fluorescence; activity change, negative = inhibition: at 76.9 µM (top of the series) unless noted
Summary of the method: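 Human enzyme at 4 nM with 400 uM 4-methylumbelliferyl-alpha-D-pyranoside, citrate/phosphate buffer pH 5.0, 0.005% Tween-20, 20 min at room temperature. Compounds up to 77 uM. 4-MU fluorescence (Ex 365/Em 440) read after NaOH/glycine stop; AC50 from Hill fit.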
Potency is read from the fitted curve at half-maximal effect; tags tell the direction and shape of the fitted curve.

Q: Which Potency does the source give for `Cc1nn(C)cc1S(=O)(=O)N1CCN(Cc2ccc(F)cc2Cl)CC1` here?
A: inconclusive [inhibitor, single point]

Q: How did the activity change, negative = inhibition turn out when `COc1ccc(CCN2C(=O)CC(N3CCN(c4ccccn4)CC3)C2=O)cc1OC` (stereo not given) was run?
A: inconclusive: -15.2% [inhibitor]

Q: How did the Potency turn out when `CCOc1ccc(NC(=O)c2sc(N3CCOCC3)nc2-c2ccccc2)cc1` was run?
A: inconclusive [inhibitor, partial curve]

Q: `COC(=O)c1nnn(-c2nc(N(C)C)nc(N(C)C)n2)c1C` was tested. Which Potency did it give?
A: inconclusive [inhibitor, single point]

Q: `O=c1c(Cc2ccc(F)cc2)c(O)ccn1CC1CCCO1` (stereo not given) was tested. Which activity change, negative = inhibition did it give?
A: inconclusive: -16.9% [inhibitor]

Q: Which activity change, negative = inhibition does the source give for `Cc1ccc(C(=O)COC(=O)c2cc(=O)[nH]c3ccccc23)cc1C` here?
A: inconclusive: 21.5% [activator]

Q: How did the Potency turn out when `COc1cccc(C(=O)CSc2nnc(CNc3nc(-c4ccccc4)cs3)n2C)c1` was run?
A: inconclusive [inhibitor, partial curve]

Q: `Clc1cccc(Nc2nc(-c3cccnc3)cs2)c1` was tested. Which activity change, negative = inhibition did it give?
A: inconclusive: 15.6% [activator]

Q: Which Potency does the source give for `CCN1/C(=C\C(C)=O)Sc2ccc(OC)cc21` here?
A: inconclusive [inhibitor, single point]

Q: With `Cc1cccc(NC(=O)CN2C(=O)N/C(=C\c3cccn3-c3cccc(C(=O)O)c3)C2=O)c1` as the compound, how does the Potency read?
A: inconclusive [inhibitor, single point]

Q: Which activity change, negative = inhibition does the source give for `CC(NC(=O)CCc1nnc(C2(c3ccc(Cl)cc3)CCC2)o1)C1CC1` (stereo not given) here?
A: inconclusive: 15.8% [activator]

Q: Which Potency does the source give for `Cc1ccc(NC(=O)COc2ncnc3cc([N+](=O)[O-])ccc23)cc1S(=O)(=O)N1CCOCC1` here?
A: inconclusive [inhibitor, full curve]

Q: How did the Potency turn out when `O=[N+]([O-])c1ccc(NCc2ccc(Cl)cc2)nc1` was run?
A: inconclusive [inhibitor, single point]

Q: For `O=C(NCCN1CCOCC1)c1ccc2c(c1)N(Cc1ccccc1)CCS2`, which Potency is on record?
A: inconclusive [activator, partial curve]

Q: With `COC(=O)c1c(N)n(-c2ccc(NC(C)=O)cc2)c2nc3ccccc3nc12` as the compound, how does the Potency read?
A: inconclusive [activator, partial curve]

Q: Which Potency does the source give for `CCc1c(C(=O)Nc2ccc(S(=O)(=O)N3CCOCC3)cc2)csc1C` here?
A: inconclusive [inhibitor, single point]

Q: For `CCOC(=O)C1CCN(C(=O)Nc2ccccc2Cl)CC1`, which Potency is on record?
A: inconclusive [inhibitor, single point]

Q: How did the activity change, negative = inhibition turn out when `O=C(Cn1c(=O)oc2cc(S(=O)(=O)N3CCCC3)ccc21)NCc1ccccn1` was run?
A: inconclusive: -15.9% [inhibitor]

Q: How did the “activity change, negative = inhibition” value turn out when `CCOc1ccc(N(CC(=O)OC)S(=O)(=O)c2ccc3c(c2)n(C)c(=O)c(=O)n3C)cc1` was run?
A: inactive: -2.94%

Q: `O=S(=O)(c1cccc(-c2nc3n(n2)Cc2ccccc2-3)c1)N1CCCCC1` was tested. Which Potency did it give?
A: inconclusive [inhibitor, single point]

Q: `Cc1ccc(-c2cnc(-c3ccncc3)o2)cc1` was tested. Which Potency did it give?
A: inconclusive [activator, partial curve]

Q: With `CS(=O)(=O)c1ccc(Cl)c(C(=O)O)c1` as the compound, how does the activity change, negative = inhibition read?
A: inconclusive: -18% [inhibitor]

Q: Which Potency does the source give for `COc1ccc(C2C(C#N)=C(C)NC3=C2C(=O)CC(C)(C)C3)c(OC)c1` (stereo not given) here?
A: inconclusive [activator, single point]

Q: How did the Potency turn out when `CC1=NN(c2ccccc2)C(=O)C1N=Nc1ccc(S(N)(=O)=O)cc1` (stereo not given) was run?
A: inconclusive [inhibitor, partial curve]

Q: Which Potency does the source give for `O=C1NCCCC1C(=O)N1CCN(C(=O)c2ccco2)CC1` (stereo not given) here?
A: inconclusive [inhibitor, full curve, poor fit]

Q: How did the Potency turn out when `CC(C)Cn1c(N)c(C(=O)COC(=O)c2cccc(Cl)c2)c(=O)n(C)c1=O` was run?
A: inconclusive [inhibitor, single point]

Q: For `CN(C)S(=O)(=O)N1CCN(c2ccc([N+](=O)[O-])c(NC3CC3)c2)CC1`, which Potency is on record?
A: inconclusive [inhibitor, full curve]

Q: For `CCOC(=O)c1[nH]c(C)c(C(=O)N2CCN(c3cccc(Cl)c3)CC2)c1C`, which Potency is on record?
A: inconclusive [inhibitor, single point]

Q: For `COc1cc(C(=O)NCCCNc2nc3cc(C)c(C)cc3cc2C#N)cc(OC)c1OC`, which Potency is on record?
A: inconclusive [activator, single point]

Q: How did the Potency turn out when `CCSc1nc(N2CCCCC2)c2c(c1C#N)CCCC2` was run?
A: inconclusive [inhibitor, single point]

Q: For `Cc1cc(S(=O)(=O)NC2CCCCC2)ccc1OCC(=O)NCc1ccccn1`, which Potency is on record?
A: inconclusive [inhibitor, single point]

Q: `COc1ccc(C(=O)N2CCN(C(=O)c3ccncc3)CC2)cc1` was tested. Which activity change, negative = inhibition did it give?
A: inconclusive: 21.7% [activator]

Q: `CC(=O)Oc1ccc2oc(=O)c3c(c2c1)CCCN3C(=O)CN1CCN(c2ncccn2)CC1` was tested. Which Potency did it give?
A: inconclusive [inhibitor, single point]

Q: With `CCOC(=O)c1c(CC(C)C)csc1NC(=O)CCl` as the compound, how does the Potency read?
A: inconclusive [inhibitor, partial curve, poor fit]

Q: `O=C1CCCN1CCCNC(=S)Nc1ccc(Br)cc1Cl` was tested. Which activity change, negative = inhibition did it give?
A: inconclusive: 20.6% [activator]

Q: Which Potency does the source give for `Cc1ccc(-c2nnc(SCC(=O)NC3CCCc4ccccc43)n2N)cc1` (stereo not given) here?
A: inconclusive [inhibitor, full curve, poor fit]

Q: For `Cc1cccc(-c2n[nH]c(=S)n2/N=C/c2ccc(C)o2)c1`, which Potency is on record?
A: inconclusive [inhibitor, partial curve]

Q: For `N#C/C(=C\c1c(N2CCCCC2)nc2ccccn2c1=O)C(=O)NC1CCS(=O)(=O)C1` (stereo not given), which Potency is on record?
A: inconclusive [activator, full curve]

Q: For `CCOc1ccc(NC(=O)CSc2nc3c(c(=O)n2-c2ccccc2OC)SCC3)cc1`, which Potency is on record?
A: inconclusive [inhibitor, single point]

Q: For `C=CCn1c(SCC(=O)c2cc(C)n(CC3CCCO3)c2C)nnc1-c1ccccc1` (stereo not given), which Potency is on record?
A: inconclusive [inhibitor, single point]
